Measured values: PubChem BioAssay (NCATS)
Several values for one entry are separate records, joined by “and”; a condition that tells them apart may be missing. Identical values can stand only once. The inconclusive results got no clear call from the source; some entries with a clear call stand among them for comparison. Potencies of inconclusive entries are doubtful fits and often do not repeat. Activity calls are given as the source filed them. Calls come from the whole dose curve; as a rule, active = well fitted cell-killing curve with a large enough effect; inconclusive = small, poorly fitted or top-dose-only effect, or effect the other way; inactive = no such curve, though single readings can be large or run the other way.

Test: Viability qHTS for spleen associated tyrosine kinase inhibitor (SYKi) naive MV4-11 cells (AID 1963823); note: nearly all actives have a fitted effect of over 40% in size
Details: MV4-11 AML viability, CellTiter-Glo luminescence, 72 h; viability (% of control): at 45 µM (top of the series)
Text: Department of Medicine, Hematology/Oncology
University Hospital Frankfurt, Germany.
Trials have shown promising clinical activity of the selective SYK inhibitor entospletinib in patients with high expressing HOXA9/MEIS1 acute leukemias. As the development of resistance mechanisms is a common problem in the use of targeted drugs, we performed a chemical library screen to identify drug sensitivities in SYK inhibitor resistant AML cells. […] Glucocorticoids are potent immunosuppressants which work in part by inhibiting the transcription of cytokine genes.
Described herein is a viability screen to look for activity in the SYK inhibitor naive cell line against four NCATS compound libraries (MIPE 5.0, NPC, NPACT, and Kinase) totaling 11372 compounds. Active hits were reacquired for confirmation and further secondary assay testing.
SEQUENCE No. (e.g., 1, 2, 3, etc.); […] (e.g., Cells, Incubation, Reagent, etc.); VALUE; DESCRIPTION.
1; Media; 2uL; white, solid-bottom Corning assay plate.
2; Compounds; 23nL; Echo acoustic dispenser.
3; Cell; 5uL; 500 cells per well.
4: Incubation; 72hr; 37 C, 5% CO2, 95% humidity.
5; Reagent; 3uL; CellTiter-Glo reagent (Promega).
6; Incubation; 10min; room temperature.
7; Detection; Luminescence; ViewLux plate reader (PerkinElmer).
NOTES (numbers refer to Sequence numbers above
1. Quantitative high-throughput screening (qHTS) of small molecule compounds was conducted on naive SYKi MV4-11 cell line.
2. Twenty-three nanoliter of small molecule compounds were added to each assay plates using the Echo acoustic dispenser (Beckman Coulter).
3. Cells were seeded into the assay plates at a final density of 500 cells in 5uL of media per well using the Multi-drop Combi dispenser.
4. Plates were covered with stainless steel gasketed lids and incubated for 72 hours at standard cell culture conditions.
5. Viability was assessed by adding 3uL of CellTiter-Glo detection reagent (Promega).
6. Plates were covered with gasket lids and incubated for 10 minutes at room temperature.
7. Luminescence was measured on a ViewLux plate reader (PerkinElmer).
Potency is the fitted concentration of half-maximal effect; tags give direction and shape of the fitted curve.

SMILES | Potency | viability (% of control)
OCCOc1ccc(/C(=C(/CCCl)c2ccccc2)c2ccccc2)cc1 | inconclusive: 23.5 µM [cytotoxic, partial curve] | 
C=C[C@@H]1[C@H](O[C@@H]2O[C@H](CO)[C@@H](O)[C@H](O)[C@H]2O)OC=C(C(=O)O)[C@H]1CCOC(=O)/C=C/c1ccc(O)c(O)c1 | inconclusive: 10 µM [cytotoxic, partial curve, poor fit] | 
CC(=O)O[C@H]1C[C@@]2(C)[C@@H](CC[C@H]3[C@@]4(C)C=CC(=O)[C@@H](C)[C@@H]4[C@H](O)C(=O)[C@@]32C)/C1=C(/CCC=C(C)C)C(=O)O | inconclusive: 12.6 µM [cytotoxic, single point] | 
CCn1c(C(=O)N(C2CC2)C2CC2)cc2c3c(ncn3C)c(Nc3cc(C)n(C)n3)nc21 | active: 1.03 µM and active: 1.48 µM | 
CC(=O)Oc1ccccc1C(=O)Nc1ncc([N+](=O)[O-])s1 | inconclusive: 15 µM [cytotoxic, partial curve] and inconclusive: 20.9 µM [cytotoxic, partial curve] | 
CO[C@@H]1COCC[C@@H]1N[C@@H]1CC[C@@](C(=O)N2CCc3ncc(C(F)(F)F)cc3C2)(C(C)C)C1 | inactive | 
COc1cc2nccc(Oc3ccc(NC(=O)Nc4ccc(F)cc4F)c(F)c3)c2cc1OC | active: 0.0231 µM | 
COc1ccc(NS(=O)(=O)c2ccc(N)cc2)nn1 | inactive | 
CC(C)C1=CCC(C)(O)C(OC2OC(CO)C(O)C(O)C2O)C1 (stereo not given) | inactive | 
COc1c(C)c2c(c(O)c1C/C=C(\C)CC/C=C(\C)CCC(=O)O)C(=O)OC2 | inconclusive: 14.3 µM [cytotoxic, single point] | 
CCOc1ccc(C(=O)OCCN(CC)CC)cc1 | inconclusive: 0.0211 µM [cytotoxic, full curve, poor fit] | 
NCc1ccc(OCCCc2sc(-c3ccc4c(c3)/C(=N/Nc3nc5ccccc5s3)CCC4)nc2C(=O)O)cc1 | inconclusive: 517 nM [cytotoxic, full curve] and inconclusive: 20.9 µM [cytotoxic, partial curve] | 
CC(C)=CCC/C(C)=C/CC/C(C)=C/CSc1ccccc1C(=O)O | inconclusive: 10.3 µM [cytotoxic, partial curve] and inconclusive: 23.5 µM [cytotoxic, partial curve, poor fit] | 
C[C@H]1COc2c(C3(N)CC3)c(F)cc3c(=O)c(C(=O)O)cn1c23 | inactive | 
CNC(=O)CN(CCN(CCN(CC(=O)[O-])CC(=O)NC)CC(=O)[O-])CC(=O)[O-].O.[Gd+3] | inactive | 
CCC(C)/C=C(C)/C=C/C1=CC2=C(Cl)C(=O)C(C)(OC(C)=O)C(=O)C2=CN1C(CCC(=O)O)C(=O)O (stereo not given) | inconclusive: 0.142 µM [cytotoxic, full curve, poor fit] | 
COC(=O)Nc1ccc(-c2nc(N3CCOCC3)c3cnn(C4CCN(Cc5cccnc5)CC4)c3n2)cc1 | active: 0.517 µM | 
CC[C@H](CC#N)OC(=O)N[C@@H](C)c1cccc(NC(=O)Nc2ccc(-c3cnco3)c(OC)c2)c1 | active: 326 nM and active: 263 nM | 
O=C(CCCCCCC(=O)N/N=C/c1ccc(N(c2ccccc2)c2ccccc2)cc1)NO | active: 4.17 µM | 
CC1CCN(CCCC(=O)c2ccc(F)cc2)CC1 | inactive | 

SMILES | Potency | viability (% of control)
CC1(C)CC[C@]2(C(=O)O[C@@H]3O[C@H](CO[C@@H]4O[C@H](CO)[C@@H](O)[C@H](O)[C@H]4O)[C@@H](O)[C@H](O[C@@H]4O[C@H](CO)[C@@H](O)[C@H](O)[C@H]4O)[C@H]3O)[C@H](O)C[C@]3(C)C(=CCC4[C@@]5(C)CC[C@H](O[C@@H]6OC[C@@H](O)[C@H](O)[C@H]6O)[C@@](C)(C(=O)O)C5CC[C@]43C)[C@@H]2C1 (stereo not given in full) |  | inactive: 67.4% [at 9.25 µM]
OC(c1cc(C(F)(F)F)nc2c(C(F)(F)F)cccc12)C1CCCCN1 (stereo not given) | active: 18.6 µM | 
CC1CC2OC3(OC2C(C)(C)O)C1C1(C)CCC24CC25CCC(O[C@@H]2OC[C@@H](O)[C@H](O)[C@H]2O)C(C)(C)C5CC=C4C1(C)C3O (stereo not given in full) | inconclusive: 4.32 µM [cytotoxic, partial curve, poor fit] | 
COC1OC(OC)C(O)(CCC2(C)C(C)CCC3(C)C2CC(O)C(O)C32CO2)C1O (stereo not given) | inconclusive: 2.52 µM [rising, single point] | 
Cc1cn([C@H]2C=C[C@@H](CO)O2)c(=O)[nH]c1=O | inactive | 
CC(C)(C)OC(=O)CN(Cc1ccc(Cl)cc1)Cc1ccc([N+](=O)[O-])s1 | inconclusive: 8.33 µM [cytotoxic, full curve, poor fit] | 
N[C@@H]1CONC1=O | inactive | 
C=CC(=O)c1ccc2ccccc2c1 | inconclusive: 18.4 µM [cytotoxic, partial curve] | 
N[C@@H](CC(=O)N1CCn2c(nnc2C(F)(F)F)C1)Cc1[nH]nc2c(F)c(F)ccc12 | inactive | 
C[C@@H]1O[C@@H](O[C@H]2[C@H](O)[C@@H](C(=O)O)O[C@@H](O[C@H]3CC[C@@]4(C)C(CC[C@]5(C)C4CC=C4C6CC(C)(C)CC[C@]6(C(=O)O)CC[C@]45C)C3(C)C)[C@@H]2O[C@@H]2O[C@H](CO)[C@@H](O)[C@H](O)[C@H]2O)[C@H](O)[C@H](O)[C@H]1O (stereo not given in full) |  | inactive: 72.6% [at 9.25 µM]
O[C@@H]1CO[C@H]2[C@@H]1OC[C@@H]2O | inactive | 
C=C1CC[C@@H](O)[C@]2(C)C[C@H]3OC(=O)C(=C)[C@H]3CC12 (stereo not given in full) | active: 14.6 µM | 
CCN1CCCC(OC(=O)C(c2ccccc2)c2ccccc2)C1 (stereo not given) | inactive | 
C[C@H](CCC(=O)O)[C@H]1CC[C@H]2[C@@H]3[C@@H](O)C[C@@H]4C[C@H](O)CC[C@]4(C)[C@H]3CC[C@]12C | inactive | 
CC(CNS(=O)(=O)C(C)C)c1ccc(-c2ccc(C#N)cc2)cc1 (stereo not given) | inconclusive: 2.59 µM [cytotoxic, full curve] | 
CCN(Cc1ccncc1)C(=O)C(CO)c1ccccc1 (stereo not given) | inactive | 
O=C(NCc1ccc(Oc2ccccc2)cc1)c1nc(-c2cc(Br)c(O)c(Br)c2)no1 | inconclusive: 23.1 µM [cytotoxic, single point] | 
CC(C)OC(=O)c1cc2c(OCC(O)CNC(C)(C)C)cccc2[nH]1 (stereo not given) | inconclusive: 10.6 µM [cytotoxic, partial curve, poor fit] | 
Cc1ccc(C(=O)Nc2cccc(C(F)(F)F)c2)cc1Nc1nc(-c2cccnc2)nc2c1cnn2C | active: 8.33 µM | 
NCc1c[nH]c(=S)n1[C@@H]1CCc2c(F)cc(F)cc2C1 | inconclusive: 20.6 µM [cytotoxic, partial curve, poor fit] | 
